Laboratory results from the supplement of paper PMC11125491.
± gives the standard deviation of the averaged measurements. Growth of baker's yeast expressing single-residue variants of Pneumocystis jirovecii dihydrofolate reductase in 8.8 or 44 µM methotrexate (about 75% and 90% inhibition of the wild type). Selection coefficient per generation; 0 = like wild type, above 0 = less sensitive, below 0 = more sensitive or loss of function. No active / inactive call per row; the paper calls resistant above 0.220 (8.8 µM) or 0.243 (44 µM) together with a significance test. At 44 µM about 15% of codons end with one read or none, so the lowest values are floors (replicate rank correlation 0.74; 0.94 at 8.8 µM).

B1: UniProt A0EPZ9; numbered along this chain (parent)
chain: MDWQKSLTLIVALTLSRGIGLKNDLPWKLKSDMMFFSRVTSGLLVTRSTGQMNVVLMGRKTWESLPAHSRPLKNRINVVISRQEVLDLGGGAYHARSLDDALALLSQIYDSTSKIQLNRVFVIGGGELCKAAMEHSRLNRIIATVIHNEVDCDVFFPIDFRSSQSCLPWRKQDHSVLEAWVGSKVPQGKINENGFIYEFEMWIRDI

Variants of: B1
Assay: selection coefficient against synonymous wild-type codons (log2 per generation); higher = faster growth than wild type
Details: with Saccharomyces cerevisiae carrying the variant on a plasmid
Procedure: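 Pooled growth of yeast carrying single-residue variants of P. jirovecii dihydrofolate reductase (own DFR1 gene intact), two passages at 30 °C, three cultures, sequenced before and after. Codons with under 15 starting reads are left out; codons of one change are averaged.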

| Variant | selection coefficient against synonymous wild-type codons (log2) (methotrexate 8.8 µM) | selection coefficient against synonymous wild-type codons (log2) (methotrexate 44 µM) |
| --- | --- | --- |
| MDWQKSLTLIVALTLSRGIGLKNDLPWKLKSDMMFFSRVTSGLLVTRSTGQMNVVLMGRKTWESLPAHSRPLKNRINVVISRQEVLDLGGGAYHARSLDDALALLSQIYDSTSKIQLNRVFVIGGGELCKAAMEHSRLNRIIATVIHNEVDCDVFFPIDFRSSQSCLPWRKQDHSVLEAWVGSKVPQGKINENGFIYEFRMWIRDI [E200R] | 0.305 ± 0.073 | 0.309 ± 0.083 |
| MDWQKSLTLIVALTLSRGIGLKNDLPWKLKSDMMFFSRVTSGLLVTRSTGQMNVVLMGRKTWESLPAHSRPLKNRINVVISRQEVLDLGGGAYHARSLDDALALLSQIYDSTSKIQLNRVFVIGGGELCKAAMEHSRLNRIIATVIHNEVDCDVFFPIDFRSSQSCLPWRKQDHSVLEAWVGSKVPQGKINENGFIYEFSMWIRDI [E200S] | 0.25 ± 0.045 | 0.227 ± 0.03 |
| MDWQKSLTLIVALTLSRGIGLKNDLPWKLKSDMMFFSRVTSGLLVTRSTGQMNVVLMGRKTWESLPAHSRPLKNRINVVISRQEVLDLGGGAYHARSLDDALALLSQIYDSTSKIQLNRVFVIGGGELCKAAMEHSRLNRIIATVIHNEVDCDVFFPIDFRSSQSCLPWRKQDHSVLEAWVGSKVPQGKINENGFIYEFVMWIRDI [E200V] | 0.298 ± 0.041 | 0.295 ± 0.036 |
| MDWQKSLTLIVALTLSRGIGLKNDLPWKLKSDMMFFSRVTSGLLVTRSTGQMNVVLMGRKTWESLPAHSRPLKNRINVVISRQEVLDLGGGAYHARSLDDALALLSQIYDSTSKIQLNRVFVIGGGELCKAAMEHSRLNRIIATVIHNEVDCDVFFPIDFRSSQSCLPWRKQDHSVLEAWVGSKVPQGKINENGFIYEFWMWIRDI [E200W] | 0.204 ± 0.061 | 0.247 ± 0.055 |
| MDWQKSLTLIVALTLSRGIGLKNDLPWKLKSDMMFFSRVTSGLLVTRSTGQMNVVLMGRKTWESLPAHSRPLKNRINVVISRQEVLDLGGGAYHARSLDDALALLSQIYDSTSKIQLNRVFVIGGGELCKAAMEHSRLNRIIATVIHNEVDCDVFFPIDFRSSQSCLPWRKQDHSVLEAWVGSKVPQGKINENGFIYEFYMWIRDI [E200Y] | 0.188 ± 0.086 | 0.255 ± 0.07 |
| MDWQKSLTLIVALTLSRGIGLKNDLPWKLKSDMMFFSRVTSGLLVTRSTGQMNVVLMGRKTWESLPAHSRPLKNRINVVISRQEVLDLGGGAYHARSLDDALALLSQIYDSTSKIQLNRVFVIGGGELCKAAMEHSRLNRIIATVIHNEVDCDVFFPIDFRSSQSCLPWRKQDHSVLEAWVGSKVPQGKINENGFIYEFEAWIRDI [M201A] | 0.0439 ± 0.046 | -0.158 ± 0.083 |
| MDWQKSLTLIVALTLSRGIGLKNDLPWKLKSDMMFFSRVTSGLLVTRSTGQMNVVLMGRKTWESLPAHSRPLKNRINVVISRQEVLDLGGGAYHARSLDDALALLSQIYDSTSKIQLNRVFVIGGGELCKAAMEHSRLNRIIATVIHNEVDCDVFFPIDFRSSQSCLPWRKQDHSVLEAWVGSKVPQGKINENGFIYEFECWIRDI [M201C] | -0.0151 ± 0.042 | -0.0102 ± 0.091 |
| MDWQKSLTLIVALTLSRGIGLKNDLPWKLKSDMMFFSRVTSGLLVTRSTGQMNVVLMGRKTWESLPAHSRPLKNRINVVISRQEVLDLGGGAYHARSLDDALALLSQIYDSTSKIQLNRVFVIGGGELCKAAMEHSRLNRIIATVIHNEVDCDVFFPIDFRSSQSCLPWRKQDHSVLEAWVGSKVPQGKINENGFIYEFEDWIRDI [M201D] | -0.0678 ± 0.049 | -0.228 ± 0.16 |
